# Experimental data reported in the supplement of paper PMC9446081.
# Screen size: about 39,000 compounds; about 220 (0.56%) showed activity. The list shows a part of the results.
# System: Escherichia coli K-12 BW25113
# Assay: relative growth (OD600 normalised to plate interquartile mean) (fraction); higher = less growth inhibition, active = 0.2 or less
# Settings: 50 µM; LB; incubation time: overnight (16-24 h)
# 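Also: static incubation at 37 °C against the wild-type strain, values averaged over two biological replicates.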
row,SMILES,relative growth
1,O=C(C[C@@H]1CC[C@H]2[C@@H](COC[C@@H](O)CN2S(=O)(=O)c2cccc(F)c2)O1)NCc1ccc2c(c1)OCO2,inactive: 1
2,C[C@H](CO)N1C[C@H](C)[C@@H](CN(C)S(=O)(=O)c2ccc(F)cc2)OCCCC[C@H](C)Oc2ccc(NC(=O)Cc3ccccc3)cc2C1=O,inactive: 0.92
3,COC(=O)C[C@@H]1CC[C@H]2[C@@H](COC[C@H](O)CN2S(=O)(=O)c2ccc(F)cc2)O1,inactive: 1.02
4,O=C(C[C@@H]1C=C[C@H](NC(=O)c2cccnc2)[C@H](CO)O1)NCc1ccncn1,inactive: 1.01
5,CCOC(=O)C[n+]1ccccc1C,inactive: 1.02
6,CCOC(=O)c1ccc(NC(=S)N[C@@H](NC(=O)c2ccc(Br)cc2)C(Cl)(Cl)Cl)cc1,inactive: 0.976
7,O=S1(=O)[C@@H]2C[C@H]3C=C[C@]2(CN1C1CC1)O3,inactive: 1.01
8,Cn1nnc2c1[C@H](COCCN1CCCC1)CN(S(C)(=O)=O)C2,inactive: 1.03
9,CN1C(=O)c2cc(NC(=O)c3cscn3)ccc2OC[C@@H]2O[C@@H](CC(=O)N3CCOCC3)CC[C@@H]21,inactive: 0.971
10,C[C@@H]1CCCCO[C@@H](CN(C)C(=O)Nc2ccc(C(F)(F)F)cc2)[C@@H](C)CN([C@H](C)CO)C(=O)c2cc(NC(=O)Nc3ccc4c(c3)OCO4)ccc2O1,inactive: 0.966
11,C[C@@H]1CN([C@@H](C)CO)C(=O)Cc2cc(NC(=O)C3CC3)ccc2O[C@@H]1CN(C)Cc1ccc(C(=O)O)cc1,inactive: 0.983
12,COc1ccc(NC(=O)Nc2ccc3c(c2)C(=O)N([C@H](C)CO)C[C@@H](C)[C@@H](CN(C)S(=O)(=O)c2c(C)noc2C)OCCCC[C@H](C)O3)cc1,inactive: 0.992
13,CC[C@H]1NCCNC1=O,inactive: 0.983
14,Cc1ccc(S[C@]2(C(=O)NCC(C)C)CC(=O)N(Cc3cc(C(F)(F)F)cc(C(F)(F)F)c3)[C@@H]2c2ccc(CO)cc2I)cc1,inactive: 0.874
15,C[C@@H]1CN([C@H](C)CO)C(=O)c2cc(NC(=O)Nc3ccccc3)ccc2O[C@@H](C)CCCCO[C@H]1CN(C)C(=O)Cc1ccccc1,inactive: 0.998
16,C[C@@H]1CN([C@@H](C)CO)C(=O)c2cc(NC(=O)C3CC3)ccc2O[C@H]1CN(C)Cc1ccc(Oc2ccccc2)cc1,inactive: 0.993
17,CN(C)Cc1cn(CC[C@@H]2CC[C@@H](NC(=O)Cc3cccnc3)[C@@H](CO)O2)nn1,inactive: 1.01
18,C[C@@H]1CCCCO[C@@H](CN(C)Cc2ccccc2)[C@H](C)CN([C@@H](C)CO)C(=O)c2cc(NC(=O)CCC(F)(F)F)ccc2O1,inactive: 1.01
19,C[C@H]1CN([C@@H](C)CO)S(=O)(=O)c2ccc(C#CCN(C)C)cc2O[C@@H]1CN(C)C(=O)Nc1ccccc1F,inactive: 1.02
20,COc1ccc(S(=O)(=O)Nc2ccc3c(c2)C(=O)N([C@@H](C)CO)C[C@@H](C)[C@@H](CN(C)C(=O)C2CCCCC2)OCCCC[C@H](C)O3)cc1,inactive: 1

row,SMILES,relative growth
1,C=CCC[C@@H](Cc1ccc(F)cc1)C(=O)O[C@@H](CNC(=O)[C@@H](CC=C)CC(=O)N[C@@H](CO)Cc1ccccc1)c1ccccc1,inactive: 0.991
2,Cc1ccc(-n2cnc3cc(NCc4cccs4)ccc32)cc1,inactive: 0.977
3,C[C@@H]1CCCCO[C@@H](CN(C)C(=O)NC2CCCCC2)[C@@H](C)CN([C@H](C)CO)C(=O)c2cc(NC(=O)NC3CCCCC3)ccc2O1,inactive: 1.01
4,C[C@H]1CN([C@@H](C)CO)C(=O)c2cc(NS(=O)(=O)c3ccc(F)cc3)ccc2O[C@@H]1CN(C)Cc1ccc(Cl)c(Cl)c1,inactive: 0.904
5,O=C(C[C@@H]1CC[C@H]2[C@@H](COC[C@H](O)CN2S(=O)(=O)c2cccc(Cl)c2)O1)NCc1ccncn1,inactive: 0.983
6,C[C@@H]1CCCCO[C@@H](CN(C)Cc2ccc(Cl)c(Cl)c2)[C@H](C)CN([C@H](C)CO)C(=O)c2cc(NC(=O)Nc3ccc4c(c3)OCO4)ccc2O1,inactive: 0.993
7,C[C@@H]1CN([C@H](C)CO)C(=O)Cc2cc(NC(=O)Cc3ccccc3)ccc2O[C@H]1CN(C)Cc1ccc(-c2ccccc2)cc1,inactive: 1.02
8,O=C(C[C@@H]1C[C@@H]2c3cc(NS(=O)(=O)c4ccc(F)cc4)ccc3O[C@@H]2[C@@H](CO)O1)NCc1ccccn1,inactive: 0.987
9,COCC#Cc1ccc2c(c1)O[C@H](CN(C)S(=O)(=O)c1cccc(F)c1)[C@H](C)CN([C@@H](C)CO)S2(=O)=O,inactive: 1.02
10,C[C@@H]1CCCCO[C@H](CN(C)S(=O)(=O)c2ccccc2)[C@@H](C)CN([C@H](C)CO)C(=O)c2cc(NC(=O)Nc3ccc(C(F)(F)F)cc3)ccc2O1,inactive: 0.824
11,C[C@H]1CN([C@@H](C)CO)C(=O)Cc2cc(NC(=O)Nc3ccc(F)cc3)ccc2O[C@H]1CN(C)Cc1ccc(Cl)c(Cl)c1,inactive: 1
12,C[C@H]1CCCCO[C@@H](CN(C)Cc2ccc3c(c2)OCO3)[C@@H](C)CN([C@@H](C)CO)C(=O)c2cc(NS(=O)(=O)c3ccccc3)ccc2O1,inactive: 1.02
13,CCNC(=O)C[C@H]1C=C[C@H](NC(=O)C2CCOCC2)[C@H](CO)O1,inactive: 0.991
14,CN1CCN(C(=O)C[C@@H]2CC[C@@H]3[C@H](COc4ccc(NC(=O)c5cccs5)cc4C(=O)N3C)O2)CC1,inactive: 0.977
15,O=C(NCc1nc2ccccc2[nH]1)C1=C[C@H](c2ccc(Br)cc2)C[C@H](OCc2ccc(CO)cc2)O1,inactive: 0.983
16,C[C@@H]1CN([C@H](C)CO)C(=O)c2cc(NC(=O)Cn3cnnn3)ccc2O[C@H]1CN(C)S(C)(=O)=O,inactive: 1.01
17,C[C@H]1CN([C@@H](C)CO)C(=O)c2cc(NC(=O)C3CCCCC3)ccc2O[C@H]1CN(C)Cc1ccc(Cl)c(Cl)c1,inactive: 0.987
18,C[C@@H]1CN([C@H](C)CO)C(=O)c2cc(NS(=O)(=O)c3cn(C)cn3)ccc2O[C@H]1CN(C)C(=O)Nc1ccc(F)cc1,inactive: 1.02
19,CO[C@H](CN(C)C(=O)C1CCOCC1)[C@H](C)CN(C(=O)Nc1ccc(C(F)(F)F)cc1)[C@@H](C)CO,inactive: 0.938
